Molecular target: the molecule itself
Assay: AUC

B1: BirA R119A variant, bio-5'-AMP bound (holoBirA^R119A) (enzyme)
chain: not shown
In the case of B1, the Kd is reported as 1.1 mM.

Source: article PMC7759012 (Biochemistry, 2020)
